# Measurements taken from PMC6549176.
# Results are given in words; binding and its absence hold for the method and conditions named. For some assays here: Binding seen in cells or lysates may run through a third protein. Some results given as binding are weak or reduced against the parent protein; the word gives no strength. Tags and fused reporters may be left off the sequences shown.
# T1: Yra1p-5xFLAG (S. cerevisiae) (UniProt Q12159)
# T1 sequence: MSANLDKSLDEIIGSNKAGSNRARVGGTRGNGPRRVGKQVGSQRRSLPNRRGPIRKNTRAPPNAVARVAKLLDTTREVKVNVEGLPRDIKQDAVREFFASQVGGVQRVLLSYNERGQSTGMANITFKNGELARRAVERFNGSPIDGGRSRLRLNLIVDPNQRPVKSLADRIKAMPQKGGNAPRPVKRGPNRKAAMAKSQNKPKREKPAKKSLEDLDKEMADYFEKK
# T2: GST-tagged Yra1p (S. cerevisiae) (UniProt Q12159)
# T2 sequence: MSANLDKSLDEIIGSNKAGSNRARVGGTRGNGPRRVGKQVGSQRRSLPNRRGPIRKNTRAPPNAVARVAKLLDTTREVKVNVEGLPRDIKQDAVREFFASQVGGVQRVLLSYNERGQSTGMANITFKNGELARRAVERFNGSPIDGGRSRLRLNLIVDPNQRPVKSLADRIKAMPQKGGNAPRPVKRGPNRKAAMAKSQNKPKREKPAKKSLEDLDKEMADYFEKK
# T3: GST-Yra1p RRM (S. cerevisiae) (UniProt Q12159)
# T3 sequence: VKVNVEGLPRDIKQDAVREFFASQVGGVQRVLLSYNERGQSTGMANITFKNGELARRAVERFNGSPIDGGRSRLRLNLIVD
# Assays:
# [1] = target: T1, Yra1p-5xFLAG (S. cerevisiae); experiment: co-IP; yeast lysates in NP40 lysis buffer (1% NP40, 150 mM NaCl, 2 mM EDTA), IgG or anti-FLAG M2 beads, 4 °C, 2 h; Western blotting; wildtype cells (also rpt2-1 cells for Sgf73p-Yra1p; also sgf73Δ cells for Ada1p and Spt20p)
# [2] = target: T2, GST-tagged Yra1p (S. cerevisiae); experiment: pull-down; GST-tagged Yra1p or its subfragments as bait (1 µg) on beads, 200 ng target protein; 50 mM HEPES-KOH pH 7.5, 150 mM NaCl, 10% glycerol, 0.1% NP40, 0.5 mM DTT, 1 mM EDTA; 4 °C, 2 h; Western blotting; both purified
# [3] = target: T3, GST-Yra1p RRM (S. cerevisiae); experiment: as above
binding [1],binding [2],Binder,also measured
,binds,"gel-filtration-purified Sgf73-DUBm (SAGA deubiquitylating module) (complex, UniProt P53165 1-657; P50102 1-471; Q03067 1-99; Q6WNK7 1-96) chain 1: MRSGDAEIKGIKPKVIEEYSLSQGSGPSNDSWKSLMSSAKDTPLQYDHMNRESLKKYFNPNAQLIEDPLDKPIQYRVCEKCGKPLALTAIVDHLENHCAGASGKSSTDPRDESTRETIRNGVESTGRNNNDDDNSNDNNNDDDDDDDNDDNEDDDDADDDDDNSNGANYKKNDSSFNPLKRSTSMESANTPNMDTKRSKTGTPQTFSSSIKKQKKVKQRNPTEKHLIDFNKQCGVELPEGGYCARSLTCKSHSMGAKRAVSGRSKPYDVLLADYHREHQTKIGAAAEKRAKQQELQKLQKQIQKEQKKHTQQQKQGQRSKQRNVNGGKSAKNGGKSTVHNGNNINEIGHVNLTPEEETTQVLNGVSRSFPLPLESTVLSSVRYRTKYFRMREMFASSFSVKPGYTSPGYGAIHSRVGCLDLDRTTDYKFRVRTPQPINHLTNQNLNPKQIQRLQQQRALQAQLLSQQQQQQQQQQQHHSPQAQAQASTQQPTQGMVPNHFPGGATNSSFNANVSSKQIQQQQQQQQHKSQDTGLTPLEIQSQQQKLRQQQLQQQKFEAAASYLANATKLMQESNQDSHLSGTHNNNSSKNGNNNLMTMKASISSPNTSVNSIQSPPSVNSVNGSGQGVSTGINVSGNNGRIEVGIGNSVNPYNGRIN chain 2: MSICPHIQQVFQNEKSKDGVLKTCNAARYILNHSVPKEKFLNTMKCGTCHEINSGATFMCLQCGFCGCWNHSHFLSHSKQIGHIFGINSNNGLLFCFKCEDYIGNIDLINDAILAKYWDDVCTKTMVPSMERRDGLSGLINMGSTCFMSSILQCLIHNPYFIRHSMSQIHSNNCKVRSPDKCFSCALDKIVHELYGALNTKQASSSSTSTNRQTGFIYLLTCAWKINQNLAGYSQQDAHEFWQFIINQIHQSYVLDLPNAKEVSRANNKQCECIVHTVFEGSLESSIVCPGCQNNSKTTIDPFLDLSLDIKDKKKLYECLDSFHKKEQLKDFNYHCGECNSTQDAIKQLGIHKLPSVLVLQLKRFEHLLNGSNRKLDDFIEFPTYLNMKNYCSTKEKDKHSENGKVPDIIYELIGIVSHKGTVNEGHYIAFCKISGGQWFKFNDSMVSSISQEEVLKEQAYLLFYTIRQVN chain 3: MTEETITIDSISNGILNNLLTTLIQDIVARETTQQQLLKTRYPDLRSYYFDPNGSLDINGLQKQQESSQYIHCENCGRDVSANRLAAHLQRCLSRGARR chain 4: MTMDTAQLKSQIQQYLVESGNYELISNELKARLLQEGWVDKVKDLTKSEMNINESTNFTQILSTVEPKALEMVSDSTRETVLKQIREFLEEIVDTQ",
,no binding,"Sus1p (FLAG-tagged, subunit of the purified Sgf73-DUBm) (protein, UniProt Q6WNK7 1-96) MTMDTAQLKSQIQQYLVESGNYELISNELKARLLQEGWVDKVKDLTKSEMNINESTNFTQILSTVEPKALEMVSDSTRETVLKQIREFLEEIVDTQ",

# Continued, binder first:
Binder,binding [1],binding [2],also measured
"Spt20p (protein, UniProt P50875 1-604) MSANSPTGNDPHVFGIPVNATPSNMGSPGSPVNVPPPMNPAVANVNHPVMRTNSNSNANEGTRTLTREQIQQLQQRQRLLLQQRLLEQQRKQQALQNYEAQFYQMLMTLNKRPKRLYNFVEDADSILKKYEQYLHSFEFHIYENNYKICAPANSRLQQQQKQPELTSDGLILTKNNETLKEFLEYVARGRIPDAIMEVLRDCNIQFYEGNLILQVYDHTNTVDVTPKENKPNLNSSSSPSNNNSTQDNSKIQQPSEPNSGVANTGANTANKKASFKRPRVYRTLLKPNDLTTYYDMMSYADNARFSDSIYQQFESEILTLTKRNLSLSVPLNPYEHRDMLEETAFSEPHWDSEKKSFIHEHRAESTREGTKGVVGHIEERDEFPQHSSNYEQLMLIMNERTTTITNSTFAVSLTKNAMEIASSSSNGVRGASSSTSNSASNTRNNSLANGNQVALAAAAAAAAVGSTMGNDNNQFSRLKFIEQWRINKEKRKQQALSANINPTPFNARISMTAPLTPQQQLLQRQQQALEQQQNGGAMKNANKRSGNNATSNNNNNNNNLDKPKVKRPRKNAKKSESGTPAPKKKRMTKKKQSASSTPSSTTMS",binds,,
"recombinant Sgf73p (MBP-Sgf73p) (protein, UniProt P53165 1-657) MRSGDAEIKGIKPKVIEEYSLSQGSGPSNDSWKSLMSSAKDTPLQYDHMNRESLKKYFNPNAQLIEDPLDKPIQYRVCEKCGKPLALTAIVDHLENHCAGASGKSSTDPRDESTRETIRNGVESTGRNNNDDDNSNDNNNDDDDDDDNDDNEDDDDADDDDDNSNGANYKKNDSSFNPLKRSTSMESANTPNMDTKRSKTGTPQTFSSSIKKQKKVKQRNPTEKHLIDFNKQCGVELPEGGYCARSLTCKSHSMGAKRAVSGRSKPYDVLLADYHREHQTKIGAAAEKRAKQQELQKLQKQIQKEQKKHTQQQKQGQRSKQRNVNGGKSAKNGGKSTVHNGNNINEIGHVNLTPEEETTQVLNGVSRSFPLPLESTVLSSVRYRTKYFRMREMFASSFSVKPGYTSPGYGAIHSRVGCLDLDRTTDYKFRVRTPQPINHLTNQNLNPKQIQRLQQQRALQAQLLSQQQQQQQQQQQHHSPQAQAQASTQQPTQGMVPNHFPGGATNSSFNANVSSKQIQQQQQQQQHKSQDTGLTPLEIQSQQQKLRQQQLQQQKFEAAASYLANATKLMQESNQDSHLSGTHNNNSSKNGNNNLMTMKASISSPNTSVNSIQSPPSVNSVNGSGQGVSTGINVSGNNGRIEVGIGNSVNPYNGRIN",,,binding [3]: no binding
"Ada1p (protein, UniProt Q12060 1-488) MSAIQSPAPKPLQPTYPAASPASTNAYMKPGLIGSPAVSNHTEPNNGNNETAEPQGPNQRIDLGAMIEELTSLLGKESWTKYAQIISLFILGKLSRKELSNELELVFSPSAASLEKSNTNHHHSLVRLHNQLLLGIFANSLRENPLGRNGNESSWGFGNGSNNPNNKLKRINKHNSQIEVYKKIVMSLPLNDRNRLKMITKEAGKRGFIFCSVFQARLNNIPKIPIVTNPESLKRVKSNNLKTPLEWSQDIMNGFNVPLASESHSLPDTDSFYLRMVGIAREHGLVGTVDARCVELISLALDQYLKNIIEFTIDTVRYRRKKYSDYYDLNESGLYKSVSEMAADKRDAKIKQLDDDKNEDECADEAKSINNGNNSSKDDIGDISMSSITKAGEAVNEELHENRTISLTNEDIYDSLSIFPNLVEPSGSYYALTNLGLVNDDELVDMKSNIDDLPDFLNEKPTFTPLDERNVGTRHELNWLIKGILTED",binds,,
